# Experimental data taken from the supplement of paper PMC3334620.
# In all, about 33,000 sequences were measured (“E-score (-0.5 to 0.5)”: median about -0.04, highest 2% from about 0.36 on). The list shows a part of the results.
# Biological target: T1, Hmlalpha2 (UniProt P0CY09)
# T1 sequence: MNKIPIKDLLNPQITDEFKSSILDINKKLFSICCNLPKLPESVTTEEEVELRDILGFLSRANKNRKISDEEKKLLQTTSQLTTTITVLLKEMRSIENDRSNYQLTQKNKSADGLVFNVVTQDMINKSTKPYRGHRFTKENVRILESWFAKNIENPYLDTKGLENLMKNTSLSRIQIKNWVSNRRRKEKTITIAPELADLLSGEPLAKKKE
# Test: PBM E-score (8-mer binding enrichment) (E-score (-0.5 to 0.5)); higher = stronger / more preferred TF binding; most listed sequences are background and not binding sites
# Conditions: protein concentration: 200 nM; construct: GST-full length
# Outline: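 E-scores (a modified Wilcoxon-Mann-Whitney statistic) were assigned by the Universal PBM Analysis Suite to every ungapped eight-base word pooled with its reverse complement. The input came from universal all-10-mer Agilent arrays made double-stranded by primer extension and probed with GST-tagged yeast transcription factors at about 100-200 nM. Fluorescent anti-GST detected bound protein, and masliner normalised the scans.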
row,Sequence,PBM E-score
1,CGCCTGGA,-0.187
2,GAGCTCTA,-0.0505
3,CTTGAGCC,-0.427
4,AATCAACA,0.37
5,ACGTAAGA,0.29
6,TAATTCAA,0.342
7,GACTCGAA,-0.317
8,GATGGCGC,-0.141
9,CGTGGATC,-0.208
10,ATAGGCAT,-0.0355
11,CTGTCAAA,0.18
12,GTCACACA,0.15
13,ACTACTAT,0.175
14,TCGATAAA,0.139
15,CACTTTGG,-0.203
16,AGACCTAC,-0.0018
17,CATCTAAG,-0.176
18,GCCTTCAC,-0.157
19,AGGGGTTA,-0.0258
20,CAAATTGG,0.066
21,AAATGGGA,-0.251
22,AGACGGCC,-0.238
23,GCGAAAAA,0.0302
24,TAATCGAA,0.247

row,Sequence,PBM E-score
1,CCTAGCTC,-0.194
2,AACATGCA,0.417
3,AGACCCTG,-0.153
4,GGTTTTAA,0.15
5,CCACTGCA,-0.145
6,CAAGATGG,-0.0754
7,GGCTTGAA,-0.12
8,CCAACCCG,-0.242
9,GGTGTGAA,0.207
10,CGTTGCAG,-0.143
11,CCTAATAG,-0.273
12,ACATTAGA,-0.00519
13,GTGCTTTA,0.123
14,CACACATG,0.169
15,AATTCGTA,0.134
16,CCTTTGCC,-0.185
17,GAGAGCGA,-0.162
18,CCGGTTGC,-0.242
19,ACACCGTG,0.237
20,AATGGCGA,-0.0465
21,TCGTGGAA,-0.00287
22,AAGAAGCC,-0.0183
23,CGAGATTA,0.0971
24,ACATTACT,0.303

row,Sequence,PBM E-score
1,GAGTAATA,0.286
2,CCATTAAC,0.255
3,AGACTCTC,-0.227
4,CTGTGCGC,-0.129
5,GGGCGGAC,-0.386
6,TACCTAAA,0.0538
7,GTTGAAAC,0.168
8,ATAACTGA,0.0824
9,TGGCACAA,-0.0502
10,CTTCACAC,0.251
11,AGGTTCAA,0.155
12,ATAGTAGG,-0.125
13,AGTTGAAA,0.0609
14,CGTTTTGA,0.216
15,CCAGTGGA,-0.212
16,ATATGTGA,0.234
17,CCCTCTCC,-0.226
18,CCGACAAG,-0.0211
19,CATCTGCG,0.0508
20,AGATGCGA,-0.184
21,CTCCGGGA,-0.259
22,CCAAGAGA,-0.0759
23,GGTTCGGA,-0.199
24,CACGTTGA,0.302

row,Sequence,PBM E-score
1,GTTTAGCA,0.0847
2,ATTTAACC,0.0603
3,ATGAGCGA,-0.138
4,AGCAAACG,-0.0759
5,TCTACAGA,0.133
6,ACCTCGGA,-0.155
7,AAGCGAGA,-0.275
8,GCGGCACA,-0.306
9,GACCCGGC,-0.255
10,CAAATGAC,-0.00664
11,GCGTAGTA,0.212
12,AATAGCAC,-0.17
13,GTCATCAA,0.119
14,GCCAGGCC,-0.231
15,AACTCAAC,0.233
16,ATGGGATG,-0.154
17,ACCTAAGG,-0.199
18,ATTTTCGC,0.0184
19,CTGGCACA,-0.106
20,AAGACCGT,-0.0822
21,CTTATGGC,-0.298
22,GTCCAACA,0.179
